Screen size: about 4,800 compounds; about 420 (8.8%) showed an effect of 50% or more. Some of the results follow.
These molecules were tested on Plasmodium falciparum (assay: Confirmatory screen in NF54 nanoGlo assay, in single point, at 2uM, 72h). Details: timepoint 72 hour.
Type: functional, Erythrocyte
For `O=C(Cc1c[nH]c2ccccc12)NC1(C(=O)NC2CCCC2)CCCCC1`, the “% Inhibition” value was 0%.
With `CCNC(=O)c1nc(-c2ccncc2)cs1` the “% Inhibition” value was -21%.
`Cn1c(=O)c2c(ncn2CC(=O)N(Cc2ccccc2)C2CC2)n(C)c1=O` was tested, and the “% Inhibition” value was -4%.
For `CCNC(=O)CNC(=O)Nc1cnn(C(C)C)c1`, the “% Inhibition” value was 0%.
`COc1ccc(N2CCN(C(=O)c3ccc(F)cc3)[C@@H](C)C2=O)cc1` was tested, and the “% Inhibition” value was 5%.
`C[C@@H](C(=O)NCCN1CCCCC1)N1C(=O)COc2ccc(C(=O)COc3ccc(Cl)cc3)cc21` was tested, and the “% Inhibition” value was -14%.
With `O=c1cc2c(nn1Cc1cccc(Cl)c1)-c1ccccc1CC2` the “% Inhibition” value was -6%.
For `COc1ccc(CNc2nc(-c3nnc(-c4ccccc4)o3)nc3ccccc23)cc1`, the “% Inhibition” value was 55%.
`O=C(C[C@H]1CCN(S(=O)(=O)c2ccc(F)cc2F)C1)NCc1ccccc1` was tested, and the “% Inhibition” value was 5%.
`O=C(O)c1cc2c(cc1C(=O)Nc1ccc(Cl)cc1)=[O+]c1ccccc1-c1ccccc1[O+]=2` was tested, and the “% Inhibition” value was -17%.
With `Cc1[nH]c2ccccc2c1C1CCN(C(=O)c2ccc(Br)cc2O)CC1` the “% Inhibition” value was -8%.
In the case of `Cc1ccccc1CN(Cc1ccccn1)Cc1ccnn1C`, the “% Inhibition” value is reported as -2%.
For `Cc1ccc(NC(=O)CC2CCOCC2)cc1F`, the “% Inhibition” value was -12%.
In the case of `Fc1cnc(OC2Cc3ccccc3C2)nc1`, the “% Inhibition” value is reported as 57%.
For `Oc1ccc(-c2ncc3n2CCCC3)cc1`, the “% Inhibition” value was 4%.
With `Nc1cc(Cl)c(C(F)(F)F)cc1N` the “% Inhibition” value was 2%.
In the case of `Nc1nc(C2CC(N)C2)cc(N2CCC(Oc3ccccc3Cl)CC2)n1` (stereo not drawn), the “% Inhibition” value is reported as 51%.
For `O=C(NCCC1=CCOCC1)c1cnc2ccccn12`, the “% Inhibition” value was -5%.
`O=C(ON1C(=O)CCC1=O)c1cc2ccccc2[nH]1` was tested, and the “% Inhibition” value was 3%.
For `O=C(Nc1ccc(-n2cncn2)cn1)c1cscn1`, the “% Inhibition” value was -18%.
In the case of `O=C(CCc1nc(-c2cccc(F)c2)no1)NCc1ccc2c(c1)OCO2`, the “% Inhibition” value is reported as 4%.
`O=c1[nH]c2ccccc2c(NCc2ccccc2)c1N1CCN(c2ccccc2)CC1` was tested, and the “% Inhibition” value was 5%.
For `COC(=O)c1nccc(N2CCc3ccccc3C2)n1`, the “% Inhibition” value was -4%.
For `COCCN(CC1CN(Cc2ccccc2OC)CC1c1ccccc1OC)C(=O)COC` (stereo not drawn), the “% Inhibition” value was -2%.
In the case of `CCC(C)(C)C(=O)NCC1CCN(S(=O)(=O)C(F)F)CC1`, the “% Inhibition” value is reported as -4%.
For `COC(=O)[C@H](C)N(C(=O)CO)c1c(C)cccc1C`, the “% Inhibition” value was 6%.
`COc1cccc(-c2cn(C)c3c(=O)n(CC(=O)Nc4ccccc4Cl)cnc23)c1` was tested, and the “% Inhibition” value was -9%.
`CC(C)(C)NC(=O)N[C@H]1COc2c1ccc(Cl)c2Cl` was tested, and the “% Inhibition” value was -3%.
For `Cc1cc(C)c(N2CCC(NC(=O)C(C)n3cncn3)C2=O)c(C)c1` (stereo not drawn), the “% Inhibition” value was 0%.
In the case of `FC(F)(F)c1cnc(Cc2ccc(OC[C@H]3CC3(Cl)Cl)cc2)c(Cl)c1`, the “% Inhibition” value is reported as 5%.
In the case of `Cc1ccc(NC(=O)N2CC(c3nc(C(C)C)nn3C)C2)cc1F`, the “% Inhibition” value is reported as -7%.
For `CCNC(=O)CN(CC)C(=O)COc1ccc(Cl)c(C)c1`, the “% Inhibition” value was -5%.
In the case of `Cn1nccc1CS(=O)(=O)c1ccc(F)c(F)c1`, the “% Inhibition” value is reported as 0%.
In the case of `CC(C)(NC(=O)CC1CCC(F)(F)CC1)c1nc2ccccc2s1`, the “% Inhibition” value is reported as 2%.
With `Cc1cnn(CC(=O)NC[C@]2(N3CCOCC3)CCOC2)c1` the “% Inhibition” value was -9%.
`Cc1ccccc1N1C2=CCCCCN2C[C@]1(O)c1ccc(Br)cc1` was tested, and the “% Inhibition” value was 1%.
For `Cc1ccc(F)cc1NC(=O)N1CCC12CCC2`, the “% Inhibition” value was -6%.
`CCC(=O)N1CCc2sc(C(=O)NC3CCN(Cc4ccccc4)CC3)cc2C1` was tested, and the “% Inhibition” value was -5%.
For `Cc1ccc(C)c(NC(=O)CC(=O)O)c1`, the “% Inhibition” value was -13%.
In the case of `Cc1cc(C(=O)NCc2cnn(C)c2C)nc(N2CCOCC2)n1`, the “% Inhibition” value is reported as -9%.
In the case of `O=C1C2CCCCC2C(=O)N1c1cnn(Cc2cccc3ccccc23)c1` (stereo not drawn), the “% Inhibition” value is reported as -6%.
In the case of `Cc1nc(O)ccc1C(=O)N[C@H](c1ccc(Cl)cc1)c1ncon1`, the “% Inhibition” value is reported as -9%.
With `Cn1ncnc1CNC(=O)NCC1(Cc2ccccc2)CCC1` the “% Inhibition” value was -8%.
`O=c1cc(N2CCN(C3CCCC3)CC2)cnn1Cc1ccccc1` was tested, and the “% Inhibition” value was -13%.
In the case of `CCOc1cc(CNC2CCCCC2)cc(Cl)c1OCc1ccc(C)cc1`, the “% Inhibition” value is reported as -7%.
For `Cc1c(S(=O)(=O)NCc2cc3c(s2)CCCC3)cnn1C`, the “% Inhibition” value was 2%.
For `Cc1nc2cc(NC(=O)c3cccs3)ccc2o1`, the “% Inhibition” value was -8%.
`CCn1nc(C)c(C(=O)Nc2cn(C)nc2C(N)=O)c1C` was tested, and the “% Inhibition” value was -8%.
With `COc1cc(C(=O)NC2CC(C)(C)NC(C)(C)C2)ccc1OCc1ccccc1Cl` the “% Inhibition” value was 3%.
With `Oc1ccccc1CNc1cccc2cccnc12` the “% Inhibition” value was 98%.
`O=C(C[C@@H]1C(=O)Nc2nc(N3CCOCC3)[nH]c(=O)c21)Nc1ccc(Cl)cc1` was tested, and the “% Inhibition” value was 9%.
For `O=c1[nH]cnc2c1nc(N1CCCCC1)n2C1OC(CO)C(O)C1O` (stereo not drawn), the “% Inhibition” value was 6%.
With `O=C(CNC(=O)[C@H]1CC[C@H](CNS(=O)(=O)c2ccccc2)CC1)N1CCN(c2ccccc2)CC1` the “% Inhibition” value was 4%.
In the case of `O=C(NCc1ccco1)[C@H]1CCCN(c2nc3ccccc3n(Cc3ccccc3)c2=O)C1`, the “% Inhibition” value is reported as 4%.
For `Brc1cncnc1NC1CC1`, the “% Inhibition” value was 2%.
With `O=C(Nc1ccc(F)cc1)c1c(O)c2cccc3c2n(c1=O)CC3` the “% Inhibition” value was -16%.
In the case of `Cc1cc(CN(C)C[C@@H]2C[C@H]2c2ccccc2)no1`, the “% Inhibition” value is reported as 4%.
With `Cc1ccccc1NC(=O)N1CCN(C(=O)c2nonc2N)CC1` the “% Inhibition” value was -7%.
For `CCn1nccc1[C@@H]1CC(c2cccc(O)c2)=NN1c1ccc(S(N)(=O)=O)cc1`, the “% Inhibition” value was 5%.
`Cc1cc(=O)c(C(=O)Nc2cccc(Cl)c2O)c[nH]1` was tested, and the “% Inhibition” value was -10%.
For `N[C@H]1C[C@H](c2cc(NCCCc3cccnc3)nc(C3CC3)n2)C1`, the “% Inhibition” value was 75%.
With `CCn1cc(C(=O)Nc2n[nH]c3ccc(C(F)(F)F)cc23)cn1` the “% Inhibition” value was -8%.
With `O=C1CN(C(c2ccccc2)(c2ccccc2)c2ccccc2)CO1` the “% Inhibition” value was -7%.
`Cc1[nH]c(=O)[nH]c(=O)c1NS(C)(=O)=O` was tested, and the “% Inhibition” value was 1%.
`COc1ccc(-c2cc3n(n2)C[C@@](C)(C(=O)NCc2ccccc2)N(Cc2ccc4c(c2)OCO4)C3=O)cc1` was tested, and the “% Inhibition” value was 63%.
`c1ccc(CCc2nnc3n2CCOC3)cc1` was tested, and the “% Inhibition” value was -4%.
In the case of `CCCOc1ccc(CNC(=O)CCn2ccn3nc(-c4ccc(C)c(C)c4)cc3c2=O)cc1`, the “% Inhibition” value is reported as 0%.
For `Clc1cccc(CNCCCNc2ccncc2)c1Cl`, the “% Inhibition” value was 71%.
With `N#CC1(O)C(C2COC3(CCCCC3)O2)OC2OC3(CCCCC3)OC21` (stereo not drawn) the “% Inhibition” value was 1%.
`Cc1cc(O)n2nc(N(C)C(=O)C(=O)N3CCN(C)CC3)c(S(=O)(=O)c3ccccc3)c2n1` was tested, and the “% Inhibition” value was 22%.
For `CC(NC(=O)C1CCC1)C(=O)Nc1ccn(C(C)c2ccccc2)n1` (stereo not drawn), the “% Inhibition” value was -4%.
In the case of `O=C(c1cccc(-n2cccn2)n1)N1CCCCCCC1`, the “% Inhibition” value is reported as -12%.
With `O=C(C[C@H]1CCN(C(=O)Nc2ccc3c(c2)OCCO3)C1)NCc1ccncc1` the “% Inhibition” value was -1%.
`CCn1nc(-n2cnnc2)c(NC(=O)c2cc(Br)ccc2OC)c1C` was tested, and the “% Inhibition” value was -10%.
With `CCOC(=O)Oc1c(OC)cc(C(=O)Nc2ccc3c(c2)sc(=O)n3C)cc1OC` the “% Inhibition” value was 6%.
`Cc1noc(C)c1CC(=O)O[C@@H](C)C(=O)Nc1ccc(F)cc1` was tested, and the “% Inhibition” value was -3%.
For `Cc1ccc2cnn(CCCNC(=O)c3ccco3)c2c1`, the “% Inhibition” value was -12%.
`CCCN1C(=O)c2ccccc2N2C(=O)CC[C@@]12C(=O)Nc1ccc(OC)cc1` was tested, and the “% Inhibition” value was 92%.
For `CCS(=O)(=O)Nc1ccc(S(=O)(=O)NC[C@@H](c2ccccc2OC)N2CCCCC2)c(C)c1`, the “% Inhibition” value was -1%.
For `O=C(Nc1ccn(Cc2cccnc2)n1)c1ccc(-c2ccccc2F)o1`, the “% Inhibition” value was -2%.
For `CC(C)(C)OC(=O)N1CCC(c2nc(-c3ccc(F)c(C(F)(F)F)c3)c[nH]2)CC1`, the “% Inhibition” value was 0%.
For `O=C(Nc1ncc(CCO)s1)[C@@H]1CCCN1C(=O)Cc1cccs1`, the “% Inhibition” value was 0%.
In the case of `Cc1ccc(CNC(=O)c2cc3cc(OCc4ccccc4)ccc3n2Cc2ccccc2)o1`, the “% Inhibition” value is reported as -2%.
In the case of `C(=C\c1cc(/C=C/c2ccccc2)n2nnnc2n1)/c1ccccc1`, the “% Inhibition” value is reported as -3%.
With `CC(=O)Nc1ccc(NC(=O)CCC(C)C)cc1` the “% Inhibition” value was -9%.
`CN1CCN([C@H]2CCN(c3ccnc4ccc(Cl)cc34)C[C@H]2CCCO)CC1` was tested, and the “% Inhibition” value was 26%.
With `CCN1CCC(NC(=O)CCc2c[nH]c3ccccc23)CC1` the “% Inhibition” value was 4%.
`Cn1cc2c(n1)CCC[C@@H]2NC(=O)c1cccc(C(=O)NC2CC2)c1` was tested, and the “% Inhibition” value was -4%.
In the case of `CCCN(CC(=O)N(Cc1ccccc1)Cc1ccc(C)o1)C(=O)c1ccco1`, the “% Inhibition” value is reported as -4%.
In the case of `CCn1c(C)cc(C(=O)O[C@@H](C)C(=O)Nc2ncccn2)c1C`, the “% Inhibition” value is reported as -4%.
With `Cc1cc(C(=O)Nc2cncc(Br)c2O)no1` the “% Inhibition” value was -3%.
With `COc1ccc2nc(C(F)(F)F)nc(N3CCNC(=O)CCN(C(=O)C(F)=C4CCCC4)CC3)c2c1` the “% Inhibition” value was 5%.
With `Cc1[nH]ccc1C(=O)N1CC[C@]2(CCN(C(=O)OC(C)(C)C)C2)C1` the “% Inhibition” value was 1%.
With `CCn1cc(Cl)c(-c2nnc(-c3cccc(C(F)(F)F)c3)o2)n1` the “% Inhibition” value was 0%.
`COc1ccc(CNC(=O)c2sc(Nc3ccc(C)cc3C)nc2C)c(OC)c1` was tested, and the “% Inhibition” value was -10%.
For `CCn1nc(C)cc1NS(=O)(=O)c1ccc2c(c1)C(C)(C)C(=O)N2C`, the “% Inhibition” value was -16%.
`CCCc1cc(Nc2ccc(C(=O)NC[C@H]3CCCO3)cc2)n2nc(-c3cccnc3)nc2n1` was tested, and the “% Inhibition” value was 29%.
In the case of `CN(C(=O)c1ccc(NC(=O)c2cnsn2)cc1Cl)C1CCCCC1`, the “% Inhibition” value is reported as -20%.
With `COc1ccc(NC(=O)Cn2cnc3nc(N4CCCCC4)ncc3c2=O)c(OC)c1` the “% Inhibition” value was -1%.
For `CCOc1ccccc1NC(=O)[C@H]1CCCN(c2nc3cccnc3n(Cc3ccc(C)cc3)c2=O)C1`, the “% Inhibition” value was -2%.
For `Cc1nn(-c2nc3ccccc3[nH]2)c(O)c1CCC(C)C`, the “% Inhibition” value was 68%.
In the case of `C[C@H]1CCCN(c2nc3ncn(CC(=O)Nc4ccccc4C(F)(F)F)c(=O)c3s2)C1`, the “% Inhibition” value is reported as -15%.
`O=C1C[C@H](c2cccnc2)c2cnn(C3CCCC3)c2N1` was tested, and the “% Inhibition” value was 6%.

Source: ChEMBL document CHEMBL4888484, “Replenishing the malaria drug discovery pipeline: Screening and hit evaluation of the MMV Hit Generation Library 1 (HGL1) against asexual blood stage Plasmodium falciparum ,using a nano luciferase reporter read-out” (2022)
